In all, about 110,000 compounds went through this assay and about 230 (0.21%) showed an effect of 50% or more. The list shows a part of the results.
molecular target: DPAP1 (Plasmodium falciparum, UniProt Q8IIJ9); test: primary screen, percent inhibition; read by cleavage of a fluorogenic dipeptide substrate; higher = more effect of the substance; design: species or system P. falciparum D10 trophozoite lysates; single well
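Also: 30 min substrate incubation versus DMSO and 10 µM JCP410 controls.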

Chain of DPAP1 (Q8IIJ9 whole entry, looked up): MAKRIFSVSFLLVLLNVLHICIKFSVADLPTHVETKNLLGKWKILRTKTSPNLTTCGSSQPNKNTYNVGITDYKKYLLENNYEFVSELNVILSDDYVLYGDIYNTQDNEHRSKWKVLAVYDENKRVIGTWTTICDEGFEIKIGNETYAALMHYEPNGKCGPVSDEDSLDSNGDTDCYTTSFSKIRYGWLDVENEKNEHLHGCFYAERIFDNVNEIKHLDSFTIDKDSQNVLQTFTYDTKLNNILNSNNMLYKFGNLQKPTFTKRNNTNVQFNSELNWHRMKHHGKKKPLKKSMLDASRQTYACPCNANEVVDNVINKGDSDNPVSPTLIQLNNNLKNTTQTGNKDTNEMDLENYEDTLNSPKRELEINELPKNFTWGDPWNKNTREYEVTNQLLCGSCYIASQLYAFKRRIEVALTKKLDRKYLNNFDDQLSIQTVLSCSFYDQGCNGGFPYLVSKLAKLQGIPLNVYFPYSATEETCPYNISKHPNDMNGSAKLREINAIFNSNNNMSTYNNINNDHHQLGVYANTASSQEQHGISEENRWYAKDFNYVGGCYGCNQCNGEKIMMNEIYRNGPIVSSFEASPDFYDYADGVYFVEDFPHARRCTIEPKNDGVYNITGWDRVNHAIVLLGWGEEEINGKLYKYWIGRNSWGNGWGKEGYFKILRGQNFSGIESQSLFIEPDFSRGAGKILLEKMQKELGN

| Compound | % Inhibition @ 10 uM [%] |
| --- | --- |
| O=C1c2ccc3c4c(ccc(c24)C(=O)N1Cc1ccccc1)C(=O)N(Cc1ccccc1)C3=O | 8.97 |
| CCOC(=O)c1c(C)[nH]c(C)c1S(=O)(=O)N1CCCC(C(=O)NC(C)C)C1 (stereo not shown) | -1.59 |
| CC(=O)c1cnc2cc(-c3cccc(Br)c3)nn2c1C | 0.35 |
| CC1=C(C(=O)Nc2cccnc2)C(c2ccc(Br)cc2)n2nc(CCCO)nc2N1 (stereo not shown) | 10 |
| O=c1c(-c2ccc(Cl)cc2)c(C(F)(F)F)oc2cc(O)ccc12 | -7.46 |
| CCc1ccc(Oc2nc3ccccn3c(=O)c2/C=C(\C#N)C(=O)N2CCCCC2)cc1 | -4 |
| Cn1c(=O)n(CCc2ccccc2)c(=O)c2c1nc1n2CCN1Cc1ccco1 | -2.28 |
| O=C(Nc1nonc1-c1nc2ccccc2[nH]1)c1ccncc1 | 5.39 |
| C(#Cc1cccs1)c1cnc2ccccc2c1 | 2.05 |
| Cc1ccc(CNC(=O)C2CCC(CNS(=O)(=O)c3ccc(Br)s3)CC2)cc1 (stereo not shown) | -0.0508 |
| O=C(Nc1ccccc1F)c1ccc(Br)c(S(=O)(=O)N2CCOCC2)c1 | 5.84 |
| CC(C)(C)Nc1nc(NC(C)(C)C)nc(N2CCCCC2)n1 | -3.58 |
| COC(=O)c1ccc2c(c1)C(=O)N(c1cccc(NC(C)=O)c1)C2=O | 1.64 |
| Cn1cc(/C=C(\C#N)[N+](=O)[O-])c2ccccc21 | -2.51 |
| O=C(Nc1ccccc1-c1ccccc1NC(=O)C1C2CCCCC21)C1C2CCCCC21 (stereo not shown) | 4.22 |
| C=CCOc1ccc(Br)cc1CNC(C)(C)CO | -5.15 |
| CC1CCN(Cc2nc3c(c(=O)n(C)c(=O)n3C)n2Cc2ccc(F)cc2)CC1 | -0.499 |
| O[C@@H](CNC[C@H](O)c1ccccc1)c1ccccc1 | 0.108 |
| COCCCNC(=O)C1CCCN(c2ncnc3c2nc2n3CCCCC2)C1 (stereo not shown) | 2.36 |
| O=C(CCc1nnc2ccc(N3CCCCC3)nn12)NCc1ccc(F)cc1 | 1.66 |
| COc1ccccc1CNc1ccc(Br)cn1 | -14.8 |
| CCN(CC(O)COc1ccc2ccccc2c1)S(=O)(=O)O (stereo not shown) | -3.48 |

| Compound | % Inhibition @ 10 uM [%] |
| --- | --- |
| O=C1c2ccccc2-c2nnc(-c3cccnc3)cc21 | -6.11 |
| COc1cc(-c2onc3ccc(Cl)cc23)cc(OC)c1OC | -4.03 |
| CCCCN(CCCC)Cc1nc(O)c2c(n1)-c1ccccc1CC21CCCCC1 | 2.6 |
| O=C(c1ccc([N+](=O)[O-])o1)N1CCN(c2cccc(Cl)c2)CC1 | 0.0792 |
| CC(C)(C)c1ccc(-c2nnc(SCC(=O)N3CCOCC3)o2)cc1 | -5.29 |
| CCCN1CC2=C(N=C(S)NC2c2ccc(N(C)C)cc2)/C(=C/c2ccc(N(C)C)cc2)C1 (stereo not shown) | 1.29 |
| Fc1ccc(-c2noc3ncnc(NCCCN4CCOCC4)c23)cc1 | -6.14 |
| Cc1cc(C)n(-c2nc3ccccc3nc2N2CCN(S(=O)(=O)c3ccc(F)c(C)c3)CC2)n1 | 2.94 |
| Cc1cc(Cl)ccc1OC(C)c1nc(-c2ccc(OCC(N)=O)cc2)no1 (stereo not shown) | -6.23 |
| COC(=O)c1[nH]c2sc3c(c2c1N)CCCC3 | 3.3 |
| COc1cc(C(=O)Nc2nc3nc(C)c(C)c(O)n3n2)cc(OC)c1OC | -1.31 |
| Cc1noc2ncnc(N3CCCC(C(=O)NC4CCCCCC4)C3)c12 (stereo not shown) | 1.84 |
| CN1CCCN(CC(c2ccccc2)c2ccccc2)CC1 | -0.603 |
| CCN1CCN(Cc2nc3c(c(=O)n(C)c(=O)n3C)n2Cc2ccc(Cl)cc2Cl)CC1 | -6.06 |
| O=C(NCCCn1ccnc1)c1ccccc1Br | -3.63 |
| N#Cc1cc2c(nc1SCC(=O)Nc1nccs1)CCCCC2 | -5.07 |
| Cn1c(O)cc(=O)nc1SCc1ccccc1 | 0.135 |
| Cc1cc(NC(=O)CN2CCN(Cc3ccccc3)CC2)no1 | 4.57 |
| CC(=O)c1cc2c(cc1NC(=O)C(C)C)OCO2 | -0.872 |
| CCC(C(=O)Nc1nc2nc(C)c(Cl)c(O)n2n1)c1ccccc1 (stereo not shown) | -4.91 |
| O=C(c1cc(-c2ccncc2)nc2ccccc12)N1CCCCC1 | -7.35 |
| CC(C)CCn1c(SCc2ccc(Cl)cc2)nc2nccnc2c1=O | 3.92 |

| Compound | % Inhibition @ 10 uM [%] |
| --- | --- |
| Cc1cc2cc(CNC(=O)c3ccccc3C(F)(F)F)ccc2[nH]1 | -5.58 |
| O=C(Nc1ccc(N2CCCCC2)cc1)c1cccnc1 | -2.51 |
| Nc1nc(-c2ccc(F)cc2)cs1 | -8.19 |
| O=c1c(=O)n(Cc2cccc(C(F)(F)F)c2)ccn1Cc1ccc(Cl)cc1 | 1.51 |
| COc1ccc(C2CC3=NC(C)=C(C(=O)Nc4ccccn4)C(c4cccc(OC)c4)C3=C(O)C2)cc1 (stereo not shown) | 0.343 |
| CCNC(=O)/C(=C\c1ccco1)NC(=O)c1ccccc1Cl | 4 |
| CCOC(=O)Cn1c(=S)sc2ccccc21 | -1.5 |
| O=C(N/C(=C\c1ccco1)C(=O)N1CCOCC1)c1ccc(Br)o1 | -2.78 |
| Clc1cccc2c(N3CCN(c4ccccn4)CC3)cnnc12 | -6.14 |
| Cc1ccccc1CS(=O)(=O)Cc1ccc(C(=O)NCCCN2CCCC2=O)o1 | -7.35 |
| N#C/C(=C\c1cccs1)c1nc(-c2ccc(Cl)cc2)cs1 | 3.06 |
| Cc1ccc(S(=O)(=O)N(CC(=O)NC2CCCC2)c2cccc(C(F)(F)F)c2)cc1 | -3.49 |
| O=C(c1ccco1)N1CCN(Cc2ccccc2Br)CC1 | 7.1 |
| CC(C)C(NC(=O)C1CCCCC1)C(=O)NC1CCN(Cc2ccccc2)CC1 (stereo not shown) | -0.228 |
| Cc1cc2nc(-c3ccc(C)s3)cc(C(F)(F)F)n2n1 | -2.85 |
| O=C(c1ccc(S(=O)(=O)N2CCCCC2)cc1)N1CCN(c2ccccc2)CC1 | -3.83 |
| COC(=O)C1=CN(Cc2ccc(OC)cc2)C=C(C(=O)OC)C1c1cc(OC)ccc1OC | 1.86 |
| Cc1ccc2cccc(O)c2[n+]1[O-] | 1.12 |
| CCCCCOC(=O)C1=C(C)NC(=O)NC1c1cccc(Br)c1 (stereo not shown) | -2.58 |
| CC1(C)CC(=O)C2=C(C1)C(c1ccc3c(c1)OCO3)c1c(O)nc(O)nc1N2 (stereo not shown) | 3.05 |

From paper PMC6919601, “Identification of Plasmodium dipeptidyl aminopeptidase allosteric inhibitors by high throughput screening” (PLoS ONE, 2019)
